Results from PMC9911399, “Two distinct binding modes provide the RNA-binding protein RbFox with extraordinary sequence specificity”.
Positions count from the first letter of the chain named. This is one part of the list.

T1: RBFOX1 RRM RbFoxmut (Fox-RRM*) (Homo sapiens, UniProt Q9NWB1 109-208, R118D;E147R;N151S;E152T)
T1 sequence: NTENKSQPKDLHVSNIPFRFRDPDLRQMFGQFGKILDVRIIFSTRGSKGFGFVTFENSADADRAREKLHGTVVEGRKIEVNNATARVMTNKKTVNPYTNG

B1: GUACUCC (DNA:RNA)
RNA: GGGAGACCGGAAUUCAGAUUGUCCGUACUCCUUAAAUCCCGUCGUAGCCACCA
DNA 1: CAATCTGAATTCCGGTCTCCC
DNA 2: TGGTGGCTACGACGGGATT
B2: GGUACCC (DNA:RNA)
RNA: B1 RNA with U26G, A27U, C28A, U29C
DNA 1: CAATCTGAATTCCGGTCTCCC
DNA 2: TGGTGGCTACGACGGGATT
B3: UUUGGCU (DNA:RNA)
RNA: B1 RNA with G25U, A27U, C28G, U29G, C31U
DNA 1: CAATCTGAATTCCGGTCTCCC
DNA 2: TGGTGGCTACGACGGGATT
B4: CGUUGCG (DNA:RNA)
RNA: B1 RNA with G25C, U26G, A27U, C28U, U29G, C31G
DNA 1: CAATCTGAATTCCGGTCTCCC
DNA 2: TGGTGGCTACGACGGGATT
B5: CUUUCGC (DNA:RNA)
RNA: B1 RNA with G25C, A27U, C28U, U29C, C30G
DNA 1: CAATCTGAATTCCGGTCTCCC
DNA 2: TGGTGGCTACGACGGGATT
B6: UAGAUGC (DNA:RNA)
RNA: B1 RNA with G25U, U26A, A27G, C28A, C30G
DNA 1: CAATCTGAATTCCGGTCTCCC
DNA 2: TGGTGGCTACGACGGGATT
B7: GCAAGGG (DNA:RNA)
RNA: B1 RNA with U26C, C28A, U29G, C30G, C31G
DNA 1: CAATCTGAATTCCGGTCTCCC
DNA 2: TGGTGGCTACGACGGGATT
B8: CAUGAUU (DNA:RNA)
RNA: GGGAGACCGGAAUUCAGAUUGUCCCAUGAUUUUAAAUCCCGUCGUAGCCACCA
DNA 1: CAATCTGAATTCCGGTCTCCC
DNA 2: TGGTGGCTACGACGGGATT
B9: UGCAUCC (DNA:RNA)
RNA: B1 RNA with G25U, U26G, A27C, C28A
DNA 1: CAATCTGAATTCCGGTCTCCC
DNA 2: TGGTGGCTACGACGGGATT
B10: GUCCGUU (DNA:RNA)
RNA: B1 RNA with A27C, U29G, C30U, C31U
DNA 1: CAATCTGAATTCCGGTCTCCC
DNA 2: TGGTGGCTACGACGGGATT
B11: GUGUCGC (DNA:RNA)
RNA: B1 RNA with A27G, C28U, U29C, C30G
DNA 1: CAATCTGAATTCCGGTCTCCC
DNA 2: TGGTGGCTACGACGGGATT
B12: UACGAUC (DNA:RNA)
RNA: B8 RNA with C25U, U27C, U31C
DNA 1: CAATCTGAATTCCGGTCTCCC
DNA 2: TGGTGGCTACGACGGGATT
B13: CACUUAA (DNA:RNA)
RNA: B8 RNA with U27C, G28U, A29U, U30A, U31A
DNA 1: CAATCTGAATTCCGGTCTCCC
DNA 2: TGGTGGCTACGACGGGATT
B14: CGUAGAC (DNA:RNA)
RNA: B8 RNA with A26G, G28A, A29G, U30A, U31C
DNA 1: CAATCTGAATTCCGGTCTCCC
DNA 2: TGGTGGCTACGACGGGATT
B15: CGUUCGA (DNA:RNA)
RNA: B8 RNA with A26G, G28U, A29C, U30G, U31A
DNA 1: CAATCTGAATTCCGGTCTCCC
DNA 2: TGGTGGCTACGACGGGATT
B16: AUUAUGG (DNA:RNA)
RNA: B1 RNA with G25A, A27U, C28A, C30G, C31G
DNA 1: CAATCTGAATTCCGGTCTCCC
DNA 2: TGGTGGCTACGACGGGATT
B17: GUCUACU (DNA:RNA)
RNA: B1 RNA with A27C, C28U, U29A, C31U
DNA 1: CAATCTGAATTCCGGTCTCCC
DNA 2: TGGTGGCTACGACGGGATT
B18: GGCGUGU (DNA:RNA)
RNA: B8 RNA with C25G, A26G, U27C, A29U, U30G
DNA 1: CAATCTGAATTCCGGTCTCCC
DNA 2: TGGTGGCTACGACGGGATT
B19: UGCUAUU (DNA:RNA)
RNA: B8 RNA with C25U, A26G, U27C, G28U
DNA 1: CAATCTGAATTCCGGTCTCCC
DNA 2: TGGTGGCTACGACGGGATT
B20: GUUCUCG (DNA:RNA)
RNA: B1 RNA with A27U, C31G
DNA 1: CAATCTGAATTCCGGTCTCCC
DNA 2: TGGTGGCTACGACGGGATT
B21: UAAUUUA (DNA:RNA)
RNA: B8 RNA with C25U, U27A, G28U, A29U, U31A
DNA 1: CAATCTGAATTCCGGTCTCCC
DNA 2: TGGTGGCTACGACGGGATT
B22: GCCCUCG (DNA:RNA)
RNA: B1 RNA with U26C, A27C, C31G
DNA 1: CAATCTGAATTCCGGTCTCCC
DNA 2: TGGTGGCTACGACGGGATT
B23: GUGCAGG (DNA:RNA)
RNA: B1 RNA with A27G, U29A, C30G, C31G
DNA 1: CAATCTGAATTCCGGTCTCCC
DNA 2: TGGTGGCTACGACGGGATT
B24: AUGUAAU (DNA:RNA)
RNA: B8 RNA with C25A, A26U, U27G, G28U, U30A
DNA 1: CAATCTGAATTCCGGTCTCCC
DNA 2: TGGTGGCTACGACGGGATT
B25: UUGUCAA (DNA:RNA)
RNA: B1 RNA with G25U, A27G, C28U, U29C, C30A, C31A
DNA 1: CAATCTGAATTCCGGTCTCCC
DNA 2: TGGTGGCTACGACGGGATT
B26: AACAGUG (DNA:RNA)
RNA: B8 RNA with C25A, U27C, G28A, A29G, U31G
DNA 1: CAATCTGAATTCCGGTCTCCC
DNA 2: TGGTGGCTACGACGGGATT
B27: CCGAGCU (DNA:RNA)
RNA: B8 RNA with A26C, U27G, G28A, A29G, U30C
DNA 1: CAATCTGAATTCCGGTCTCCC
DNA 2: TGGTGGCTACGACGGGATT
B28: GGCCACU (DNA:RNA)
RNA: B1 RNA with U26G, A27C, U29A, C31U
DNA 1: CAATCTGAATTCCGGTCTCCC
DNA 2: TGGTGGCTACGACGGGATT
B29: AUGGCGC (DNA:RNA)
RNA: B1 RNA with G25A, A27G, C28G, U29C, C30G
DNA 1: CAATCTGAATTCCGGTCTCCC
DNA 2: TGGTGGCTACGACGGGATT
B30: GUCUAAA (DNA:RNA)
RNA: B1 RNA with A27C, C28U, U29A, C30A, C31A
DNA 1: CAATCTGAATTCCGGTCTCCC
DNA 2: TGGTGGCTACGACGGGATT
B31: CAGGAUA (DNA:RNA)
RNA: B8 RNA with U27G, U31A
DNA 1: CAATCTGAATTCCGGTCTCCC
DNA 2: TGGTGGCTACGACGGGATT

Target: T1, RBFOX1 RRM RbFoxmut (Fox-RRM*)
Experiment: EMSA; HiTS-Eq, 1 nM pool, 10 min; buffer printed only for the single-RNA assays: 10 mM Tris pH 7.5, 150 mM NaCl, 3.4 mM EDTA, 0.001% NP-40, 30 C
Settings: tags: His6 N-terminal (pET28a); label: 5' 32P
Outline: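 These values rest on relative association constants, computed from read-count changes of each RNA species versus the control reaction and normalised to the cognate motif. Reads came from free RNA recovered by 8% native PAGE after purified RbFox RRM (wild type or mutant) at increasing concentrations was equilibrated for 10 min in 50 µL with 1 nM of a 5′-radiolabelled pool with 7 randomized nucleotides and DNA-annealed flanks.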

Binder	binding signal
B1	0.044 KA relative to UGCAUGU
B2	0.0795 KA relative to UGCAUGU
B3	0.128 KA relative to UGCAUGU
B4	0.169 KA relative to UGCAUGU
B5	0.0864 KA relative to UGCAUGU
B6	0.087 KA relative to UGCAUGU
B7	0.0544 KA relative to UGCAUGU
B8	0.108 KA relative to UGCAUGU
B9	0.421 KA relative to UGCAUGU
B10	0.122 KA relative to UGCAUGU
B11	0.118 KA relative to UGCAUGU
B12	0.0637 KA relative to UGCAUGU
B13	0.123 KA relative to UGCAUGU
B14	0.106 KA relative to UGCAUGU
B15	0.093 KA relative to UGCAUGU
B16	0.0767 KA relative to UGCAUGU

Binder	binding signal
B17	0.0784 KA relative to UGCAUGU
B18	0.208 KA relative to UGCAUGU
B19	0.0929 KA relative to UGCAUGU
B20	0.0978 KA relative to UGCAUGU
B21	0.0583 KA relative to UGCAUGU
B22	0.101 KA relative to UGCAUGU
B23	0.107 KA relative to UGCAUGU
B24	0.115 KA relative to UGCAUGU
B25	0.0912 KA relative to UGCAUGU
B26	0.0616 KA relative to UGCAUGU
B27	0.108 KA relative to UGCAUGU
B28	0.0527 KA relative to UGCAUGU
B29	0.112 KA relative to UGCAUGU
B30	0.111 KA relative to UGCAUGU
B31	0.0992 KA relative to UGCAUGU
